Experimental data: patent US20230203482A1, “Methods of Rescuing Stop Codons via Genetic Reassignment with ACE-tRNA” (THE WISTAR INSTITUTE OF ANATOMY AND BIOLOGY, priority 2017, published 2023)

Columns and labels:
[1] = test system: NLuc-UGA stably expressed in HEK293 cells; test: PTC suppression in HEK293 cells stably expressing NLuc-UGA (cDNA or RNA delivery, versus aminoglycosides); format: cell-based, human; settings: for rescue of stably expressed NLuc-UGA by ACE-tRNA delivered as RNA versus cDNA: RNA transcripts transfected with lipofectamine 2000; for suppression of stably expressed NLuc-UGA compared with gentamicin and G418: gentamicin 40 μM, G418 140 μM (150 uM in FIG. 32), 24 or 48 hours
Method: In vitro tRNA transcription. […] Equimolar concentration of T7 oligo (5)-taatacgactcactata-3′) was annealed to ACE-tRNA PAGE-purified Ultramers (20 ug; Integrated DNA Technologies, Coralville, Iowa) coding for the ACE-tRNA and preceded by a T7 promoter (italics). Importantly, the three terminal nucleotides containing CCA were included (bold).
The total reaction volume was adjusted to 100 μl and the kit reagents were added in the following amounts: 10 μl of 10X T7-Scribe transcription buffer, 7.5 μl of each nucleotide (100 mM stocks), 10 μl of 100 mM Dithiothreitol, 2.5 μl ScriptGuard RNase Inhibitor, 10 μl T7-Scribe enzyme solution. After the reaction was incubated for 4-5 hours at 37° C., the DNA template was digested with 5 μl DNase (1 U/μl) provided with the kit for 30-60 min. The ACE-tRNA was extracted from the reaction with acidic phenol chloroform (5:1, pH 4.5) and precipitated with ethanol. The precipitates ACE-tRNA was pelleted, washed, dried and resuspended in 100 μl DEPC-treated water and further purified with Chrorna Spin-30 columns (Clontech, USA). The procedure yielded roughly 100 μl of ˜5 μg/μl ACE-tRNA. ACE-tRNAs were re-pelleted in 20 ug aliquots, washed, lyophilized and stored at −80° C. until use. All results were generated from ≥2 ACE-tRNA preparations.
Generation of stable N Luc reporter cell lines.
RNA transfection. […] 16-24 hours later the cells were transfected with ACE-tRNAs using lipofectamine 2000 (ThermoFisher Scientific, USA). Briefly, 3 μg of ACE-tRNA were suspended in 1500 of OptiMEM and 120 of Lipofectamine 2000 was mixed with 150 μl of OptiMEM. The volumes were combined, thoroughly mixed and incubated for 10 mins at RT. 75 μl of the transfection complex was added to each well. PTC suppression by ACE-tRNA transcripts was quantified as described above.
The in vivo activity and stability of ACE-tRNA was examined. The NLuc-UGA PTC reporter cDNA was delivered together with a plasmid encoding four copies of the ACE-tRNA^Arg UGA or an ‘empty vector control’ into mouse skeletal muscle (tibialis anterior) using electroporation (Wheeler et al., 2009, Science, 325, 336-339; Wheeler et al., 2007, J Clin Invest, 117, 3952-3957; Muthumani et al., 2017, Cancer Immunol Immunother, 66, 1577-1588). […] The signal from the NLuc-UGA plasmid and non-electroporated muscle was undetectable. Further, ACE-tRNA^Arg suppression activity was stable, as evidenced by the similar duration of NLuc activity between rescued and WT protein, FIG. 34B. Furthermore, this duration and intensity of luciferase expression argues in favor of a high in vivo tolerability and negligible repercussion of increased readthrough observed with ACE-tRNA^Arg. […]

[2] = test system: NLuc-UGA PTC; test: NanoLuc nonsense reporter screen (all-in-one HTC plasmid), TGA/UGA PTC, HEK293 cells; format: cell-based, human; settings: transiently transfected HEK293 cells
Source text: Several different nonsense mutations cause CF, thus underlying roughly 10% of all CF disease. FIG. 7. These cases are concentrated into […] specific genetic lesions: E60X, R75X, G542X, R553X, Q890X, Y1092X, R1158X, R1162X and W1282X. A screen was developed to screen existing human tRNA sequences for modification and tolerance to anti-codon editing. To this end, roughly 144 ACE-tRNAs were candidates to test for those that could be used to promote the repair of the disease causative nonsense codon and the expression of the full-length protein. Specifically, using the scheme described in FIG. 11, tRNA libraries were generated to identify novel tRNA sequences that encode for ACE tRNA with the ability to repair the top CF causative nonsense mutations. Specifically, 10 ng of annealed oligos encoding the ACE-tRNAs were combined with 50 ng of NanoLuc reporter plasmid, 1 μl 10×CutSmart Buffer (NEB), 1 μl T4 ligase (NEB), 10 mM ATP and 1 μl BbsI (NEB) and cycled in a thermocycler as described in FIG. 11. 1 μl of the reaction was transformed into competent E. coli and the transformants were plated on ampicillin agar plates. […]
Screening studies were first performed to identify the best ACE-tRNA Candidates from tryptophan and glycine. […] Plates were read on a SpectraMax i3 (Molecular Devices). […]

Trpchr17.trna39: top performing tryptophan ACE-tRNA UGA suppressor, SEQ ID NO: 48
rescue of stably expressed NLuc-UGA by ACE-tRNA delivered as RNA versus cDNA [1]: comparable fold rescue when delivered as small RNA | suppression of stably expressed NLuc-UGA compared with gentamicin and G418 [1]: exceeded PTC rescue compared to G418 | stop codon selectivity (NanoLuc TGA, TAA or TAG reporter) ([2]; listed as ACE-tRNA^Trp): retained selectivity for the UGA stop codon, over UAA and UAG

B1: Glychr19.trna2: top performing glycine ACE-tRNA UGA suppressor, SEQ ID NO: 53 (nucleic acid)
chain: GCGTTGGTGGTATAGTGGTTAGCATAGCTGCCTTCAAAGCAGTTGACCCGGGTTCGATTCCCGGCCAACGCA
modifications: chemistry not fully specified
rescue of stably expressed NLuc-UGA by ACE-tRNA delivered as RNA versus cDNA [1]: comparable fold rescue when delivered as small RNA | suppression of stably expressed NLuc-UGA compared with gentamicin and G418 ([1]; listed as ACE-tRNA^Gly): outperformed the conventional small molecule suppressors gentamicin (40 μM) and G418 (140 μM); also recorded: outperforms both gentamicin (40 uM) and G418 (140 uM) | stop codon selectivity (NanoLuc TGA, TAA or TAG reporter) ([2]; listed as ACE-tRNA^Gly): retained selectivity for the UGA stop codon, over UAA and UAG

Entries after “also recorded” stand apart in the source; their conditions may differ.
